{"source": "PubChem BioAssay AID686979", "about": "(National Center for Advancing Translational Sciences (NCATS), 2013)", "note": "Hit rate of the full screen: of about 420,000 compounds, about 50,000 (12%) were called active. Inconclusive results, whose numbers are uncertain, are shown with a selection of clear calls. The call rests on the fitted dose curve; in most records, active means well fitted inhibition curve with a large enough effect; inconclusive means small, poorly fitted or top-dose-only effect; inactive means flat fitted curve, though single readings scatter. Potencies of inconclusive entries are left out as doubtful fits. On the % scale 0 is the no-effect control and ±100 the full control effect; potency means the concentration at half of the fitted maximal effect; tags describe the fitted curve by direction and shape."}
{"test": "qHTS for Inhibitors of human tyrosyl-DNA phosphodiesterase 1 (TDP1): qHTS in cells in presence of CPT; further: nearly all actives have a fitted effect of over 55% in size", "details": "chicken DT40 Tdp1-/-;hTDP1 cells + 20 nM CPT, ATP luminescence, 48 h; activity change, negative = growth inhibition: at 46.2 µM (top of the series) unless noted", "outline": "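Chicken DT40 Tdp1-/- cells stably complemented with human TDP1 were seeded at 400 cells/well in medium containing 20 nM camptothecin, exposed to pin-transferred compounds, and grown at 37 °C for at least 48 hr. Viability was read as ATP luminescence.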"}
{"molecule": "Cc1ccccc1S(=O)(=O)NCc1ccc(N2CCN(C)CC2)cc1", "Potency": "inconclusive [inhibitor, single point]"}
{"molecule": "Cn1nccc1NC(=O)Nc1cccc(Cl)c1", "activity change, negative = growth inhibition": "inactive: 14.8%"}
{"molecule": "c1cncc(-c2nc3ccccn3c2Nc2ccc3c(c2)OCCO3)c1", "Potency": "inconclusive [inhibitor, single point]"}
{"molecule": "CCOc1cccc(CNc2ccc(O)cc2)c1OCc1ccc(Cl)cc1", "Potency": "active: 14.6 µM"}
{"molecule": "COc1ccc(-c2nc(Cn3c(SCc4ccccc4F)nc4cccnc43)c(C)o2)cc1", "Potency": "inconclusive [inhibitor, single point]"}
{"molecule": "COc1ccc(-c2ccc(=O)n(CC(=O)Nc3cccc(O)c3)n2)cc1OC", "Potency": "inconclusive [inhibitor, partial curve]"}
{"molecule": "Cc1ccc(CNC(=O)CN2C(=O)C3(SCC(=O)N3c3ccc(F)c(F)c3)c3ccccc32)cc1", "note": "(stereo not drawn)", "activity change, negative = growth inhibition": "inactive: -27.4%"}
{"molecule": "COc1cc(C(C(=O)NC2CCCCC2)N(C(=O)Cc2c[nH]c3ccccc23)c2ccccc2C)cc(OC)c1OC", "note": "(stereo not drawn)", "activity change, negative = growth inhibition": "inactive: -6.72%"}
{"molecule": "Cc1nn(C(C)C(=O)NC2CCCCCC2)c(=O)c2nn(-c3ccccc3)c(C)c12", "note": "(stereo not drawn)", "activity change, negative = growth inhibition": "inactive: 0.0498%"}
{"molecule": "CC(=O)c1csc(COc2ccc(Cl)cc2)n1", "Potency": "inconclusive [inhibitor, single point]"}
{"molecule": "Cc1ccc(NC(=O)CSc2nnc(-c3cccnc3)n2-c2ccc(C)cc2)cc1", "activity change, negative = growth inhibition": "inactive: -27.6%"}
{"molecule": "CN(C)CCCNc1ncnc2c1c(-c1ccccc1)cn2-c1ccccc1", "Potency": "inconclusive [inhibitor, single point]"}
{"molecule": "CCCN(CCC)C(=O)C(c1ccccc1)C1(O)CCCCC1", "note": "(stereo not drawn)", "Potency": "inconclusive [inhibitor, partial curve]"}
{"molecule": "CCc1cccc(C)c1NC(=O)c1ccoc1C", "Potency": "inconclusive [inhibitor, partial curve]"}
{"molecule": "O=C(CN1C(=O)CCc2cc(S(=O)(=O)N3CCCCC3)ccc21)NCc1ccc(Cl)cc1", "Potency": "active: 20.6 µM"}
{"molecule": "CN1C(=O)C(O)(C2COC(C)(C)CC2=O)c2cc(Br)ccc21", "note": "(stereo not drawn)", "Potency": "active: 5.8 µM"}
{"molecule": "CC(C)C[C@H](NC(=O)OC(C)(C)C)C(=O)N/N=C/C1=Cc2ccccc2OC1C", "note": "(stereo partly drawn)", "Potency": "inconclusive [inhibitor, single point]"}
{"molecule": "O=c1c2ccccc2nnn1CSc1ccccc1F", "Potency": "inconclusive [inhibitor, single point]"}
{"molecule": "CN(C)c1ccc(/C=C/C=C2/SC(=S)N(c3ccccc3)C2=O)cc1", "Potency": "active: 18.4 µM"}
{"molecule": "O=C(CN1C(=O)CC(c2ccco2)Sc2ccccc21)Nc1ccc2c(c1)OCCO2", "note": "(stereo not drawn)", "Potency": "inconclusive [inhibitor, partial curve]"}
{"molecule": "COc1ccc(C(=O)C[n+]2cccc(Br)c2)cc1", "Potency": "inactive"}
{"molecule": "CCOC(=O)C1=C[C@@H](C(C)(C)C)N(S(=O)(=O)c2ccc(OC)cc2)[C@H]1c1ccccc1", "Potency": "active: 18.4 µM"}
{"molecule": "COCc1c(C(=O)Nc2ccc(C)c(S(=O)(=O)N3CCOCC3)c2)oc2ccccc12", "Potency": "inconclusive [inhibitor, single point]"}
{"molecule": "O=c1cc(NS(=O)(=O)c2ccccc2)nc(SCc2ccc(Cl)cc2)[nH]1", "activity change, negative = growth inhibition": "inactive: -3.31%"}
{"molecule": "COC(=O)c1c(NC(=O)c2ccc(S(=O)(=O)N(C)C3CCCCC3)cc2)sc2c1CCN(C)C2", "activity change, negative = growth inhibition": "inactive: -105%"}
{"molecule": "Cc1ccc(C)c(N2CCN(C(=O)CS(=O)(=O)c3cccc4nsnc34)CC2)c1", "Potency": "inconclusive [inhibitor, partial curve, poor fit]"}
{"molecule": "CC1(C)Cc2c(sc3[nH]c(=S)n(Cc4ccco4)c(=O)c23)CO1", "Potency": "active: 20.6 µM"}
{"molecule": "CC(=O)OC[C@@H]1CN(Cc2ccccc2)C[C@H](n2cnc3c(NC4CCCC4)ncnc32)O1", "Potency": "inconclusive [inhibitor, single point]"}
{"molecule": "CC(=O)c1c(C)[nH]c(C(=O)NCc2ccccc2Cl)c1C", "Potency": "inconclusive [inhibitor, partial curve]"}
{"molecule": "COc1ccc(OCC(=O)NCC(c2ccc(OC)cc2)N2CCOCC2)cc1", "note": "(stereo not drawn)", "activity change, negative = growth inhibition": "inactive: -14.8%"}
{"molecule": "Cc1ccc2nc(-c3ccc(C)o3)c(NC3CCCC3)n2c1", "Potency": "active: 11.2 µM"}
{"molecule": "O=C(Nc1cc(Cl)cc2c1-c1ccc(Cl)cc1C2O)C(Cl)Cl", "note": "(stereo not drawn)", "Potency": "active: 23.1 µM"}
{"molecule": "CCc1nnc(NC(=O)CCN(c2ccc(C)cc2)S(=O)(=O)c2ccccc2)s1", "Potency": "inconclusive [inhibitor, single point]"}
{"molecule": "Cc1ccc(OCC(=O)N2CCN(c3nnc(-c4ccc(C)cc4)c4ccccc34)CC2)cc1", "Potency": "active: 16.4 µM"}
{"molecule": "Cc1cc(C)cc(Oc2cc(NC(=O)c3cn(C)nc3C)cc([N+](=O)[O-])c2)c1", "Potency": "active: 2.24 µM"}
{"molecule": "COc1ccc(C(=O)Nc2ccc(NS(=O)(=O)c3ccccc3)cc2)cc1OC", "Potency": "inconclusive [inhibitor, single point]"}
{"molecule": "COc1ccc(NC(C)=[N+](C)CCNS(=O)(=O)c2ccc(Cl)cc2)cc1", "Potency": "inconclusive [inhibitor, single point]"}
{"molecule": "Cc1ccccc1CN1CCNC(=O)C1CC(=O)NC1CCCCCCC1", "note": "(stereo not drawn)", "Potency": "inconclusive [inhibitor, single point]"}
{"molecule": "COc1cc(C)c(Cl)cc1S(=O)(=O)N1CCSC1", "activity change, negative = growth inhibition": "inactive: -14.5%"}
{"molecule": "O=C(NC1CS(=O)(=O)CC1NCc1ccccc1)c1ccccc1", "note": "(stereo not drawn)", "activity change, negative = growth inhibition": "inactive: -13.6%"}
{"molecule": "COc1ccccc1NC(=O)C1CCCCN1S(=O)(=O)c1ccc(F)cc1", "note": "(stereo not drawn)", "activity change, negative = growth inhibition": "inactive: -21.2%"}
{"molecule": "Cc1cc(NC(=O)c2cnc3c(-c4ccccc4)c(C)nn3c2C)ccc1Br", "Potency": "inconclusive [inhibitor, single point]"}
{"molecule": "Cc1ccc(S(=O)(=O)N(CCO)c2cc3c(s2)CCCC3)cc1", "Potency": "inconclusive [inhibitor, single point]"}
{"molecule": "CCn1c(=O)n(CC)c2cc(N3CCCC3)c(NC(=O)c3ccc(OC)c(Br)c3)cc21", "Potency": "active: 16.4 µM"}
{"molecule": "COCCCNc1oc(-c2ccccc2F)nc1C#N", "Potency": "inconclusive [inhibitor, single point]"}
{"molecule": "O=C(NCc1cccnc1)c1csc([C@@H]2O[C@H](CO)[C@H](O)[C@H](O)[C@H]2O)n1", "activity change, negative = growth inhibition": "inactive: 5%"}
{"molecule": "CCOc1ccc(S(=O)(=O)NCCC(=O)OC(C)C(=O)N2CCc3ccccc32)cc1", "note": "(stereo not drawn)", "Potency": "inconclusive [inhibitor, single point]"}
{"molecule": "Cc1cc(C)cc(C(=O)NCC(=O)N2CCC(C(N)=O)CC2)c1", "activity change, negative = growth inhibition": "inactive: -1.63%"}
{"molecule": "CCCCn1c(-c2cccc(C)c2)nc2cc3[nH]c(=O)c(C(C)C)nc3cc21", "Potency": "inconclusive [inhibitor, single point]"}
{"molecule": "CCCC(=O)OC1CCS(=O)(=O)c2sccc21", "note": "(stereo not drawn)", "Potency": "inconclusive [inhibitor, single point]"}
{"molecule": "O=C(Cn1c(-c2cccs2)cc2cc(F)ccc21)NCCCN1CCN(c2ccc(F)cc2)CC1", "Potency": "inconclusive [inhibitor, single point]"}
{"molecule": "Cc1ccc(/C=C/c2onc(C)c2S(=O)(=O)N2CCC(C(=O)NCc3ccc(OC(C)C)cc3)CC2)cc1", "Potency": "inconclusive [inhibitor, full curve, poor fit]"}
{"molecule": "C=CCNC(=O)c1ccc2nc(-c3ccccc3)c(-c3ccccc3)nc2c1", "Potency": "inconclusive [inhibitor, single point]"}
{"molecule": "O=C(NCCNc1ccnc2cc(Cl)ccc12)c1ccccc1F", "Potency": "active: 6.51 µM"}
{"molecule": "Cc1cccc(-n2c(C)cc(/C=N\\NC(=O)c3ccco3)c2C)c1", "Potency": "inconclusive [inhibitor, single point]"}
{"molecule": "CCC(C)C(NC(=O)C1CCC(C)CC1)C(=O)Nc1ccc(OC)cc1", "note": "(stereo not drawn)", "Potency": "inconclusive [inhibitor, single point]"}
{"molecule": "COc1ccc(C)cc1NC(=O)NNC(=O)C1CCC(C(C)(C)C)CC1", "note": "(stereo not drawn)", "Potency": "inconclusive [inhibitor, single point]"}
{"molecule": "CCn1c(SCC(=O)c2ccccc2)nnc1-c1cccc(Cl)c1", "Potency": "inconclusive [inhibitor, single point]"}
{"molecule": "Cc1ccc(S(=O)(=O)N(C)CC(=O)O/N=C(\\N)c2cccc(Br)c2)cc1", "activity change, negative = growth inhibition": "inactive: -1.26%"}
{"molecule": "CCc1c(CN2CCN(c3ccccc3F)CC2)csc1C", "Potency": "inconclusive [inhibitor, single point]"}
{"molecule": "CC1Cc2ccccc2N1C(=O)c1cc2sccc2n1Cc1ccc(F)cc1", "note": "(stereo not drawn)", "Potency": "inconclusive [inhibitor, single point]"}
{"molecule": "COCCn1c(/C=C/c2ccccc2)nc2ccccc21", "activity change, negative = growth inhibition": "inactive: -21.9%"}
{"molecule": "CCOC(=O)c1ccc(NC(=S)N2CCN(CCN=CC3=C(O)CC(C)(C)CC3=O)CC2)cc1", "activity change, negative = growth inhibition": "inactive: 12.7%"}
{"molecule": "Cc1ccc(Nc2nc3ccccc3o2)cc1F", "Potency": "active: 8.2 µM"}
{"molecule": "Cc1cccc(C)c1NC(=O)CN1C(=O)C2CC=CCC2C1=O", "note": "(stereo not drawn)", "activity change, negative = growth inhibition": "inactive: -12%"}
{"molecule": "O=c1oc(-c2ccc(Br)cc2)nc2ccccc12", "activity change, negative = growth inhibition": "inactive: -3.18%"}
{"molecule": "O=C(/C(=C/O)N=Nc1ccccc1)c1ccc(Cl)cc1", "Potency": "inconclusive [inhibitor, single point]"}
{"molecule": "O=C(COC(=O)c1cccc(O)c1)NCc1ccc2c(c1)OCO2", "activity change, negative = growth inhibition": "inactive: -2.62%"}
{"molecule": "CCCCn1nc(C(=O)Oc2ccc3c(C)cc(=O)oc3c2)c2ccccc2c1=O", "activity change, negative = growth inhibition": "inconclusive: -31.5% [inhibitor]"}
{"molecule": "Cc1cc(C)nc(NS(=O)(=O)c2ccc(NS(=O)(=O)c3ccc(F)c(F)c3)cc2)n1", "activity change, negative = growth inhibition": "inactive: 6.88%"}
{"molecule": "COc1ccc(NS(=O)(=O)c2cc(NC(=O)CCc3ccccc3)ccc2N2CCOCC2)cc1", "Potency": "inconclusive [inhibitor, partial curve]"}
{"molecule": "CCN(C(=O)COC(=O)CCC(=O)c1cccs1)c1ccccc1", "activity change, negative = growth inhibition": "inactive: 4.83%"}
{"molecule": "COc1ccc(-c2c(C)c3ccc(O)c(CN4CCCC4)c3oc2=O)cc1", "Potency": "inconclusive [inhibitor, single point]"}
